Our source for the self-cleavage values is the RNAGym collection of RNA variant scans (doi:10.7554/elife.90254).

The labels stand for the following.
B1: LINE1-mini (parent)
chain: GGCAGAGCUCAACACAGCGUGGCAAAGUGGCUGUGGCUAGACUGCC

Read counts are not given, so values of variants with three or more changes are uncertain.

In this series the parent is B1. In words: self-cleavage, relative activity (ratio to wild type); higher = more cleavage; in vitro, sequencing; the parent is a self-cleaving ribozyme.
On to A11G G44U C45G, for which the self-cleavage was 0.
For the variant A11U C13A G17U U43A, the self-cleavage stood at 0.01.
Then A11U A14U A25U C46A, with 0.03; and A11G C15A C37U, with 0.03.
The same measure for A11C G30A C31A: 0.03; for A11G G22A G29A U32G: 0.02.
The same measure for A11U C13G C23A C46A: 0.04.
For the variant A11G U20A U38G, the self-cleavage was found to be 0.03.
The same measure for A11G G29A G36U: 0.02; for A11G A16G U34C U38A: 0.01.
The same measure for A11G G29C G30U G33A G35C G44A: 0.01; for A11G A12U G17A G36A: 0; for A11G G22C C46G: 0.01.
Then A11G G19U U34A, with 0.03; and A11G G22C C42U, with 0.03.
As for A11G C23U U43A, the self-cleavage was determined as 0.
With A11G C23A A25C C45G, the self-cleavage was 0.05.
Then A11U A16G C23U C31G C42G, with 0; and A11U C13G G30A G40U, with 0.02; and A11U A14C G19A, with 0.01.
Then A11G A25C G30C, with 0.04; and A11G A25C G30U, with 0.08; and A11G C18U C31U C45U, with 0.03.
The same measure for A11G A25C G36U C45U: 0.01; for A11U A16U G29U: 0.02; for A11C G33C G44A: 0.02.
As for A11G U20A G27C G30U, the self-cleavage came to 0.02.
The same measure for A11G G22A G27U C37A: 0.01.
Then A11G G27C G35A C42A, with 0.01.
The same measure for A11G U20G G33U U43G: 0.1; for A11G C31U G36U: 0.03.
In the case of A11G C15U A24C C31U G33U C42A, the self-cleavage worked out at 0.01.
Then A11G C15U C18A A26G G29C C42U, with 0; and A11G G22U G29C G30U G40C, with 0.02; and A11G G40A C42U, with 0.03.
The same measure for A11U C13G U32G U43A: 0.01.
The same measure for A11G C15G C23A G27A U38C G40U: 0; for A11G G19A G22C C31U: 0.03.
Turning to A11G A14C C18A G33U, the self-cleavage was 0.02.
The same measure for A11G G22C A24C C37U: 0.02; for A11G A12C A16C: 0.02.
Take A11C G27A C42U C46A: the self-cleavage amounted to 0.
The same measure for A11U A41U C45A: 0.06; for A11C G36A U43A: 0.
Regarding A11U A26C G27U G33U, the self-cleavage was 0.02.
The same measure for A11G G27A U28G: 0.02; for A11C G30A G35C: 0.06; for A11U A14G C23A: 0.09.
Then A11G C13G G27U A39C, with 0.03; and A11G G35C C45U, with 0; and A11G C13G A26U, with 0.02.
A11G C13G A26C: the self-cleavage was 0.01.
Then A11U A14C G22U, with 0.03.
The same measure for A11G A25U U32G G36A: 0.03; for A11C U20G G36A: 0.01.
As for A11U A26U G36C, the self-cleavage worked out at 0.01.
Then A11C U28A G29A G35A, with 0.02; and A11U C13U C15A G22A C46A, with 0.02.
On to A11G G21A C23A, for which the self-cleavage turned out to be 0.01.
Then A11G C18U G21C U34C, with 0.03.
The same measure for A11G A14U G36C: 0.05; for A11G C15A U32A: 0.07; for A11G C23G C31A: 0.01.
The same measure for A11G C13G C23U U28A: 0.02; for A11U A14C C15G G29U G30U C31A G36C: 0.01; for A11C G29U C42A: 0.04.
Regarding A11G C23G U38C, the self-cleavage was 0.02.
Then A11C U20G C37A C46A, with 0.01; and A11C G30C C37A C46G, with 0; and A11G G22A U43C, with 0.02.
The same measure for A11G C31U G35C: 0.03.
The same measure for A11U C13G G21U: 0.01; for A11G G22C G27U G30A U34A: 0.04; for A11G C15U G35U C45U: 0.02.
Regarding A11C U20C U34A, the self-cleavage stood at 0.01.
Then A11C U28G G30U C42U, with 0.01; and A11C U20A C23U A24U, with 0.04.
Regarding A11U C13A A16C C31A U43A, the self-cleavage worked out at 0.02.
Then A11G A26C G30A C31G, with 0.01; and A11G A12G A16U G33A U43A G44A, with 0; and A11G G36U C42A, with 0.04.
The same measure for A11C G33A C37A: 0.02; for A11G C13A G30U U34C C42U: 0.02.
Regarding A11U C13U C18A G35U, the self-cleavage is 0.
The same measure for A11U A24C G33U A39C: 0.02.
Then A11C G36A A39U, with 0.01; and A11G U28G G30C G40A, with 0.01.
The same measure for A11G C15G G21A A39U: 0.01.
In the case of A11G C15G G40C, the self-cleavage came to 0.01.
The same measure for A11U A14C A25U U38A: 0.02; for A11U A14C G19C C31U G44C: 0.01; for A11C U34G C45U: 0.
On to A11C G22U G44A, for which the self-cleavage turned out to be 0.01.
The same measure for A11C G40A C46G: 0.01; for A11G U28G G29U C46G: 0.01; for A11U C13U C23A: 0.03.
Then A11G A12G G30U C31U, with 0.01; and A11G A26G C46A, with 0.04.
Then A11G A25U G35A, with 0.
Turning to A11G G27A C31U, the self-cleavage was found to be 0.02.
Then A11G C18U A25G C45U, with 0; and A11C G36U C37U U43C C45U, with 0; and A11G A12G G19A A41C, with 0.03.
Then A11U A14C G30U, with 0.04.
Then A11U A24C A25G, with 0.05.
On to A11G G35A A41C, for which the self-cleavage was 0.05.
Then A11C G22C U32C, with 0.02; and A11U A16C G17U C31G G33C, with 0; and A11G G19A C42G, with 0.02.
Then A11U C13G C23U, with 0.01.
Turning to A11G C42U G44U, the self-cleavage came to 0.04.
Then A11G A12U U28G G44A, with 0.02; and A11G G19C U34A G36U U43G C46G, with 0; and A11U A12G U32C C37A, with 0.01.
For the variant A11U A12C U34C G44U, the self-cleavage came to 0.04.
Take A11G A14G C23U U28C C46G: the self-cleavage was found to be 0.03.
The same measure for A11G A12G U28C G35A: 0.01.
Then A11G C18A G22A, with 0.02.
As to A11G U32A A41G, the self-cleavage was 0.02.
As for A11G C13U A24U G30A, the self-cleavage was 0.04.
The same measure for A11G C13U G22C G36C: 0.01.
Consider A11G C23A G29A C46A, for which the self-cleavage is 0.02.
Then A11G U20A C23U C31A, with 0.03; and A11G C18U G19A C23U A25G, with 0.
Turning to A11G C15U U28G C46U, the self-cleavage came to 0.01.
The same measure for A11G G21A C45A: 0.01.
Then A11U A14U G33U G35C, with 0; and A11U A12U A16C, with 0.02.
The same measure for A11C G27A A41C: 0.02; for A11G A14C G17A G22U U38G: 0.02; for A11U A24G G27A: 0.24.
As for A11U A12C U20G G27U, the self-cleavage was 0.02.
The same measure for A11G C31G G36U C42G: 0.01; for A11G G21C A26U G44U: 0.02; for A11G U28A G30U: 0.03.
With A11G G17A G27C, the self-cleavage came out at 0.11.
The same measure for A11C U28C U32A G33C U34C G40U: 0.01; for A11G C23U U32G: 0.02.
Then A11G C23G U28G U34A, with 0.01; and A11G G29C G30C, with 0.02; and A11G C13A G29A G30A, with 0.01.
Then A11G G21U U32C G44A, with 0.02; and A11C U38G A41U, with 0.02.
As to A11G U32G G35U, the self-cleavage turned out to be 0.02.
Consider A11U C13G G35C, for which the self-cleavage came to 0.01.
For the variant A11U C13G U20C A24U G30C, the self-cleavage came out at 0.01.
As to A11U A16G G22C A25U G30U, the self-cleavage came to 0.01.
The same measure for A11G A16C G22C: 0.01; for A11G A12G C15A G19A U34C G44A: 0; for A11G C23G A26U G29C: 0.
The same measure for A11G A16U A41U G44C: 0.06.
Then A11G G17A U34A, with 0.03; and A11G G22U C31A, with 0.01.
Regarding A11U A12C C42U, the self-cleavage stood at 0.03.
The same measure for A11G A24U U43C C45G: 0.03; for A11U C13A G22A A24U: 0.01; for A11G G22A G44U: 0.02.
With A11C G30U U32G U38G A39U, the self-cleavage was 0.02.
For A11U C13A G17U C31A C37G C42A, the self-cleavage was determined as 0.01.
Then A11U A16C C23U, with 0.01; and A11G G27A G29A, with 0.01; and A11G C13A U32G G35A, with 0.04.
Then A11U A16C A26C G40C, with 0.01; and A11G A14G G17U G35U, with 0.
The same measure for A11G G22U G40U C42A U43G C46G: 0.05.
A11G G19U C45U: the self-cleavage worked out at 0.02.
Consider A11G G21U G27C G40C, for which the self-cleavage stood at 0.01.
